Laboratory results as given in PubChem BioAssay AID686979 (National Center for Advancing Translational Sciences (NCATS), 2013).
In all, about 420,000 compounds went through this assay and about 50,000 (12%) were called active. This list was built around the results that the source calls inconclusive (neither active nor inactive); the mix of calls is not that of the screen. Calls follow the shape of the dose curve; as a rule, active = well fitted inhibition curve with a large enough effect; inconclusive = small, poorly fitted or top-dose-only effect; inactive = flat fitted curve, though single readings scatter. No potency is given beside an inconclusive call; the fits are too rough.

assay: qHTS for Inhibitors of human tyrosyl-DNA phosphodiesterase 1 (TDP1): qHTS in cells in presence of CPT; details: chicken DT40 Tdp1-/-;hTDP1 cells + 20 nM CPT, ATP luminescence, 48 h; activity change, negative = growth inhibition: at 46.2 µM (top of the series) unless noted; also: nearly all actives have a fitted effect of over 55% in size
Summary of the method: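 Chicken DT40 Tdp1-/- cells stably complemented with human TDP1 were seeded at 400 cells/well in medium containing 20 nM camptothecin, exposed to pin-transferred compounds, and grown at 37 °C for at least 48 hr. Viability was read as ATP luminescence.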
% is scaled to controls: 0 for no effect and ±100 for the full control effect; potency is read from the fitted curve at half-maximal effect; tags tell the direction and shape of the fitted curve.

Compound	Potency	activity change, negative = growth inhibition
Cc1sc(NC(=O)C2C3C=CC(C3)C2C(=O)O)c(C(N)=O)c1-c1ccc(C(C)C)cc1 (stereo not drawn)	inconclusive [inhibitor, partial curve]	–
NS(=O)(=O)c1ccc(NC(=O)/C=C/c2ccco2)cc1	inactive	–
FC(F)(F)c1cc(N2CCOCC2)nc(-c2ccccc2)n1	–	inconclusive: -35.2% [inhibitor]
Cc1ccc2cc(CN(C(=O)c3ccco3)c3cccc(C)c3C)c(=O)[nH]c2c1	inactive	–
CCN1CCN(C(c2ccc(F)cc2)c2nnnn2Cc2cccs2)CC1 (stereo not drawn)	inactive	–
CCOC(=O)C1=NNC(C(=O)c2ccccc2)C1c1ccc(OC)cc1 (stereo not drawn)	–	inconclusive: -39.3% [inhibitor]
COc1ccccc1NC(=O)C1=C(C)Nc2nnnn2C1c1ccccn1 (stereo not drawn)	inconclusive [inhibitor, single point]	–
Cc1ccn2c(NC3CCCCC3)c(-c3ccc(SC4CCCCC4)cc3)nc2c1	inconclusive [inhibitor, single point]	–
O=C(CSc1nnc(-c2ccc(O)cc2)n1Cc1ccco1)c1ccccc1	inactive	–
CCC1(c2ccc(Cl)cc2)NC(=O)N(CC(=O)NC2CCCCCC2)C1=O (stereo not drawn)	inconclusive [inhibitor, partial curve]	–
O=C(CCl)N(c1ccc(Cl)cc1)c1c[nH]c2ccccc12	active: 1.84 µM	–
COc1ccccc1N1CCN(C(c2cc3cc(C)ccc3[nH]c2=O)c2nnnn2C2CCCC2)CC1 (stereo not drawn)	inconclusive [inhibitor, single point]	–
O=C(Nc1ccc(Cc2ccncc2)cc1)C1CCC(N2C(=O)C3CC=CCC3C2=O)CC1 (stereo not drawn)	active: 20.6 µM	–
CCN(CC(=O)Nc1ccc(C#N)cc1)CC(=O)Nc1ccc2c(c1)OCCO2	inactive	–
O=[N+]([O-])C(=C1SCCS1)C(=C(Cl)Cl)N1CCCCC1	inconclusive [inhibitor, partial curve, poor fit]	–
O=C(CSc1cc(Cl)ccc1Cl)Nc1ccc(N2CCOCC2)cc1	inconclusive [inhibitor, single point]	–
CN1CCN(c2ncc3nc(-c4ccc(Cl)cc4)c(=O)n(Cc4cccs4)c3n2)CC1	inconclusive [inhibitor, single point]	–
N#C/C(=C\c1ccco1)C(=O)NCc1ccccc1	inactive	–
COC1CCCN(Cc2c(C(=O)N3CCN(C4CCCCC4)CC3)nc3ccccn23)C1 (stereo not drawn)	inactive	–
Cc1ccc(CNC(=O)C(Cc2ccccc2)NS(=O)(=O)c2cccs2)cc1 (stereo not drawn)	inconclusive [inhibitor, partial curve]	–
COc1cc(/C=c2\s/c(=C(/C#N)C(=O)N3CCCC3)n(-c3ccccc3)c2=O)ccc1O	inconclusive [inhibitor, partial curve, poor fit]	–
Cc1nc2c(C(=O)NCCC(C)C)c[nH]n2c(=O)c1Cc1ccccc1F	inconclusive [inhibitor, partial curve, poor fit]	–
COc1ccc(CNC(=O)Cc2c(C)c3cc4c(C)coc4cc3oc2=O)cc1	inactive	–
COc1ccc(OCC(O)CNS(=O)(=O)c2cccs2)cc1 (stereo not drawn)	inconclusive [inhibitor, single point]	–
COc1ccc(NC(=O)C2C(c3ccc4c(c3)OCO4)=Nc3ccccc3N2C(C)=O)cc1 (stereo not drawn)	inconclusive [inhibitor, partial curve, poor fit]	–

Compound	Potency	activity change, negative = growth inhibition
CCOc1cc(N2CCOCC2)c(OCC)cc1NC(C)C(=O)N1CCN(CC)CC1 (stereo not drawn)	inactive	–
COc1ccc2ccccc2c1/C=N/NC(=S)NCCN1CCOCC1	active: 16.4 µM	–
Cc1cc(N2CCN(C)CC2)ccc1NC(=O)c1ccc(-c2ccc(Cl)cc2)o1	inconclusive [inhibitor, single point]	–
CSc1nn(CC(=O)Nc2ccccc2F)c(N)c1S(=O)(=O)c1ccccc1	inactive	–
Fc1cccc(/C=N/Nc2ccc3ccccc3n2)c1	inconclusive [inhibitor, partial curve]	–
CC(=O)Nc1ccc(N=Nc2ccc(O)cc2)cc1	active: 14.6 µM	–
COc1ccc(-c2noc(CCCC(=O)Nc3cccc(Cl)c3C)n2)cc1	inconclusive [inhibitor, single point]	–
C/C(=N/O)c1c(O)c(C)c(-c2ccccc2)n(-c2ccccc2)c1=O	inactive	–
CC(NC(=O)/C=C/c1ccc(Br)cc1)c1ccccc1 (stereo not drawn)	active: 16.4 µM	–
C=CCn1c(C)csc1=Nc1ccccc1C	inactive	–
CC(=O)Nc1ccc(S(=O)(=O)N(C)CC(=O)OCC(=O)Nc2cc(C)on2)cc1	inactive	–
Cn1c(NCCc2ccncc2)nc2cc(-c3ccccc3)sc2c1=O	active: 25.9 µM	–
COc1cc(C(=O)N/N=C/c2cn(Cc3ccccc3)c3ccccc23)ccc1O	inconclusive [inhibitor, single point]	–
COc1cc2c(cc1OC)CN(Cc1cc(OC)c3c(c1)OCO3)CC2	inconclusive [inhibitor, partial curve, poor fit]	–
Cc1ccc(S(=O)(=O)CCC(=O)NCCc2ccc(Cl)cc2)cc1	inactive	–
O=C(COC(=O)CCc1ccccc1)Nc1ccc(F)cc1Cl	inactive	–
Cn1c(SCC(=O)N2CCN(c3ccccc3)CC2)nnc1-c1cc2ccccc2o1	inconclusive [inhibitor, partial curve]	–
CC(C)C(=O)NC(Nc1cccc2cccnc12)C(Cl)(Cl)Cl (stereo not drawn)	active: 14.6 µM	–
CCC(C(=O)NC1CCCC1)N(C(=O)c1snc(C(N)=O)c1N)c1ccc2c(c1)OCCO2 (stereo not drawn)	inconclusive [inhibitor, partial curve]	–
COc1cc(CCNC(=O)CCCn2c(=O)c3cccn3c3cccnc32)cc(OC)c1OC	inconclusive [inhibitor, single point]	–
CCCCCCCCCCCCCCCCOP(=O)([O-])OCC[N+](C)(C)C	inactive	–
COc1ccc(NC(=O)CCCSc2ccccc2)cc1	inactive	–
CCOc1ccc(C2=NC(c3ccncc3)=Nc3ccc(C)cc3N2)cc1OCC	inconclusive [inhibitor, single point]	–
COc1ccc(C2CC(=O)c3c([nH]c(C(=O)OCc4ccccc4)c3C)C2)cc1 (stereo not drawn)	active: 11.6 µM	–
O=[N+]([O-])c1cc(Cl)ccc1N1CCN(c2cccc(C(F)(F)F)c2)CC1	inconclusive [inhibitor, partial curve]	–

Compound	Potency	activity change, negative = growth inhibition
CCc1c(C(=O)Nc2ccc(OC)cc2)[nH]c(C)c1C(C)=O	inconclusive [inhibitor, partial curve]	–
O=C(NNC1=NCCN1Cc1ccccc1)c1cccc(C(F)(F)F)c1	inactive	–
Cc1ccc(OCCn2cc(C(=O)c3cccs3)c3ccccc32)cc1	active: 18.4 µM	–
COCc1cc(C)nc2sc(C(=O)Nc3ccccc3O)c(N)c12	inconclusive [inhibitor, single point]	–
O=C(Nc1ccc(Oc2ccccc2)nc1)C1CCCCN1Cc1cccc(O)c1 (stereo not drawn)	inconclusive [inhibitor, single point]	–
O=C(CCN1CCN(c2ccccc2)CC1)c1ccc(Cl)cc1	active: 5.17 µM	–
O=C(c1ccc(Cl)s1)N(Cc1nnc(-c2ccccc2Cl)o1)C1CC1	inconclusive [inhibitor, single point]	–
CCC1Nc2ncnc(N3CCCCC3)c2N(Cc2ccc(C)cc2)C1=O (stereo not drawn)	inconclusive [inhibitor, single point]	–
C=C(C)C(=O)Nc1cccc(C2=NOC3(C2)C[C@H](C(N)=O)N(C(=O)c2ccccc2C(=O)c2ccccc2)C3)c1 (stereo partly drawn)	inconclusive [inhibitor, single point]	–
COc1ccc(C(CNC(=O)c2cccc(NS(=O)(=O)c3ccccc3)c2)N2CCCC2)cc1 (stereo not drawn)	inconclusive [inhibitor, single point]	–
O=C(O)c1ccccc1C(=O)NC1CCN(c2nccc(C(F)(F)F)n2)CC1	inactive	–
O=[N+]([O-])c1ccc(S(=O)(=O)Nc2nc(-c3ccccc3)cs2)cc1	inconclusive [inhibitor, partial curve]	–
CC(=O)c1cccc(NC(=O)COC(=O)c2cccc(N3C(=O)c4ccccc4C3=O)c2)c1	inactive	–
Cc1cc(C)nc(N(C#N)CCOc2ccc(Cl)cc2)n1	inactive	–
CC(C)Sc1nc(N)nc2c1ncn2C1OC(CO)C(O)C1O (stereo not drawn)	inactive	–
CN(C)C(=O)CCc1ccc2c3c([nH]c2c1)[C@]1(CCC2CCCC2)[C@@H](C(=O)N2CCOCC2)C[C@H](CC(=O)NCc2cccc(C(F)(F)F)c2)C(=O)N1CC3	active: 20.6 µM	–
CC(NC(=O)C(=O)NCCN1CCN(C(=O)c2ccc([N+](=O)[O-])cc2)CC1)c1ccccc1 (stereo not drawn)	inactive	–
CCCCCCc1nc2ccccc2c(=O)n1N	inconclusive [inhibitor, single point]	–
CSCc1ccc(C(=O)N2CCC(CCC(=O)N(C)Cc3ccccc3)CC2)o1	–	inconclusive: -30.3% [inhibitor]
O=C(CSc1ncnc2c1cnn2CCO)Nc1cccc(C(F)(F)F)c1	inconclusive [inhibitor, single point]	–
O=C(CSc1nc2ccccc2nc1N1CCOCC1)N1CCN(c2ccccc2)CC1	active: 20.6 µM	–
C=CC[C@H](CC(=O)N(CCO)Cc1ccccc1)C(=O)N[C@H](COC(=O)[C@@H](CC=C)Cc1ccc(F)cc1)Cc1ccccc1	active: 20.6 µM	–
COc1ccccc1NC(=O)C1=C(C)Nc2c(C(=O)Nc3ccc(C)cc3)cnn2C1c1cccc(OC)c1OC (stereo not drawn)	inconclusive [inhibitor, single point]	–
